According to US9745340B2, “Method for the separation of proteins containing an albumin-binding” (AFFIBODY AB, priority 2012, dated 2017):
Numbering of substitutions follows the chain as printed.

Experiments:
PEP06548 = experiment: Purification of PEP06548 on anti-ABD agarose; type: binding
Method: Pelleted E. coli cells harboring soluble PEP06548 were suspended in TST-buffer supplemented with 27 U/ml Benzonase®. Cells were disrupted by sonication and the cell debris removed by centrifugation. The C-terminal cysteines of the PEP06548 sample molecules were reduced by addition of DTT to a final concentration of 20 mM, followed by incubation for 30 min at RT. Chromatography was performed using an ÄKTAexplorer 100 system. The clarified and reduced sample was applied on an XK-16 column packed with 9 ml anti-ABD agarose and pre-equilibrated with TST. This batch of anti-ABD agarose was prepared essentially as described in Example 6, except for a lower ligand density of approximately 2.3 mg (Z06677)2-Cys per ml of resin. The column was washed with 5.5 CV of TST followed by 3.3 CV of 5 mM NH4Ac pH 5.5. Bound protein was eluted by applying 2.9 CV of 0.1 M HAc, pH 2.9. Fractions were collected for further analyses by SDS-PAGE and HPLC-MS.

PEP08517 = experiment: Column study I: spin columns, Z variant-coupled SulfoLink resins, pure sample; type: binding; details: for elution profile in column study I: SulfoLink resin, wash PBS/Tris, elution pH 4 and pH 2.5, A280
Method: 1 mg of each lyophilized ABD binding Z variant Z06608, Z06620, Z06638, Z06650, Z06677, Z06678 and Z06695, in the format His6-(Z#####)2-Cys produced as described in Example 2, was resuspended in a reducing buffer (50 mM Tris-HCl, 5 mM EDTA, 20 mM DTT, pH 8.5) and incubated at RT for 2 h. Reduced protein solutions were transferred to a coupling buffer (50 mM Tris-HCl, 5 mM EDTA, pH 8.5) including 50 mM DTT, using size exclusion chromatography, and then mixed with portions of 0.2 ml SulfoLink Coupling Resin (Thermo Fisher Scientific, cat. no. 20401). This procedure enables site-directed reaction between the thiol groups of the C-terminal cysteine residues of the ABD binding Z variants and the iodoacetyl groups of the resin, forming a covalent thioether bond. The coupling reaction was carried out according to the instructions by the manufacturer. The degree of coupling, defined as mg of coupled ABD binding Z variant per ml of resin, was determined as follows: The amount of coupled ABD binding Z variant was calculated by subtracting the amount of uncoupled material from the original amount of sample, based on concentrations obtained by spectrophotometric measurements of the absorbance at 280 nm. The amount of coupled ABD binding Z variant in mg was then divided with the volume of the SulfoLink Coupling Resin.
A first column study was performed to test binding, wash and elution properties of each of the seven ABD binding Z variants coupled to resin and by using a previously purified sample of the ABD fusion protein PEP08517. PEP08517 comprises the albumin binding domain PP013 (SEQ ID NO:160) fused at its N-terminus to a cytokine binding variant of protein Z. 0.1 ml portions of the resins were transferred to test tubes and 0.1 ml of a pure sample of PEP08517 at 2 mg/ml in coupling buffer was added. The tubes were incubated on a rotating wheel for 1 h at RT. Each sample-resin mix was transferred to an empty spin column. Unbound protein was collected by centrifugation (flow-through, FT). 0.1 ml of different solutions, specified in Table 1, were thereafter added to wash and subsequently elute bound PEP08517 molecules. Each wash and elution fraction was collected by centrifugation.
Collected fractions were analyzed in a spectrophotometer by measuring the absorbance at 280 nm.

B1: (Z06677)2-Cys: dimeric Z06677 with C-terminal Cys, GSSLQ-[Z06677][Z06677]-VDC (SEQ ID NO: 187) (protein)
chain: GSSLQVDAKYAKELKVAFKEINTLPNLTHQQRIAFIIKLDDDPSQSSELLAEAKKLNDAQAPKVDAKYAKELKVAFKEINTLPNLTHQQRIAFIIKLDDDPSQSSELLAEAKKLNDAQAPKVDC
purified PEP06548 obtained per ml of resin (PEP06548; ligand density approximately 2.3 mg (Z06677)2-Cys per ml of resin): 3.7 mg per ml of resin
PEP06548 molecule per (Z06677)2-Cys ligand (PEP06548; ligand density approximately 2.3 mg per ml of resin): approximately one

B2: His6-(Z06650)2-Cys: dimeric Z06650 with N-terminal His6 tag and C-terminal Cys (protein)
chain: MGSSHHHHHHLQVDAKYAKEFKLALQEIHYLPNLTLDQRLAFILKLDDDPSQSSELLAEAKKLNDAQAPKVDAKYAKEFKLALQEIHYLPNLTLDQRLAFILKLDDDPSQSSELLAEAKKLNDAQAPKVDC
elution profile in column study I (PEP08517): most favorable elution profile

B3: His6-(Z06608)2-Cys: dimeric Z06608 with N-terminal His6 tag and C-terminal Cys (protein)
chain: MGSSHHHHHHLQVDAKYAKELHHAFREIKFLPNLTFHQRLAFIVKLDDDPSQSSELLAEAKKLNDAQAPKVDAKYAKELHHAFREIKFLPNLTFHQRLAFIVKLDDDPSQSSELLAEAKKLNDAQAPKVDC
elution step releasing most of the sample (PEP08517; 0.5 M HAc, pH 2.5, first (a) or second (b) addition): eluted most of the sample at the second addition of pH 2.5 buffer
elution profile in column study I (PEP08517): most favorable elution profile

B4: His6-(Z06638)2-Cys: dimeric Z06638 with N-terminal His6 tag and C-terminal Cys (protein)
chain: B3 chain with H22V, H23N, R26S, F30A, F36L, H80V, H81N, R84S, F88A, F94L
elution profile in column study I (PEP08517): most favorable elution profile
